{"source": "the BET-seq Pho4 binding data (Le et al. 2018)", "note": "This is one part of the list. These are noisy estimates, calculated here from bound and input reads."}
{"target": "T1, Pho4 (S. cerevisiae) (UniProt P07270)", "T1 sequence": "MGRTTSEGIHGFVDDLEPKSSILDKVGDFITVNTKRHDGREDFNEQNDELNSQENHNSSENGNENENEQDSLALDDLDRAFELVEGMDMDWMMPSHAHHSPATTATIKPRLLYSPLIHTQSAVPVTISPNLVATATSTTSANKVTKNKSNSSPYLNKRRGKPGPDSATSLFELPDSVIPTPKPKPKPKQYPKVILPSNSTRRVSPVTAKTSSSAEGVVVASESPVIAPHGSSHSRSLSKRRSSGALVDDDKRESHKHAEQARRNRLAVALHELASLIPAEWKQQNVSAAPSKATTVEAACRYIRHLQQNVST", "experiment": "relative binding free energy (BET-seq); higher = weaker binding", "conditions": "reference: library average", "units": {"relative binding free energy": "kJ/mol"}}
{"sequence": "TGTGCCACGTGTCTAG", "relative binding free energy": -0.167}
{"sequence": "TTACTCACGTGTGGCT", "relative binding free energy": 0.753}
{"sequence": "ATTAACACGTGGGTGT", "relative binding free energy": -0.418}
{"sequence": "ATATGCACGTGTTCTG", "relative binding free energy": -0.167}
{"sequence": "GTTTCCACGTGGTATA", "relative binding free energy": 0.502}
{"sequence": "TTTCACACGTGTGTGC", "relative binding free energy": 1.05}
{"sequence": "GTCGGCACGTGTATAT", "relative binding free energy": 0.502}
{"sequence": "TGGGCCACGTGCAGGT", "relative binding free energy": -0.795}
{"sequence": "TTAGGCACGTGGTGCT", "relative binding free energy": -0.544}
{"sequence": "TTTCACACGTGATTTG", "relative binding free energy": 0.711}
{"sequence": "AATTTCACGTGTACGT", "relative binding free energy": 1.55}
{"sequence": "TGTATCACGTGCTGGT", "relative binding free energy": 0.126}
{"sequence": "ATGGACACGTGGAAAT", "relative binding free energy": 0.544}
{"sequence": "TTTGTCACGTGTTCCG", "relative binding free energy": 0.502}
{"sequence": "AGATGCACGTGGGGAT", "relative binding free energy": -0.293}
{"sequence": "CTATTCACGTGTTGTG", "relative binding free energy": 0.711}
{"sequence": "TTTGTCACGTGCGATT", "relative binding free energy": 1.17}
{"sequence": "CTGTTCACGTGGGTTC", "relative binding free energy": 1}
{"sequence": "ACGTGCACGTGGGTCG", "relative binding free energy": -1.21}
{"sequence": "TGACACACGTGGCGGG", "relative binding free energy": 0.377}
{"sequence": "TTAAGCACGTGGTGTA", "relative binding free energy": -0.753}
{"sequence": "GTATGCACGTGTATTG", "relative binding free energy": -0.377}
{"sequence": "TTAGACACGTGCATGG", "relative binding free energy": 0.293}
{"sequence": "GACTGCACGTGGGTGG", "relative binding free energy": -0.502}
{"sequence": "GGGTGCACGTGGGATA", "relative binding free energy": 0.209}
{"sequence": "AGAGACACGTGGGTTT", "relative binding free energy": -0.0418}
{"sequence": "TGTTACACGTGCTTTA", "relative binding free energy": -0.335}
{"sequence": "TTGTGCACGTGTGGCC", "relative binding free energy": 0.293}
{"sequence": "ATCTGCACGTGGTGTT", "relative binding free energy": -0.837}
{"sequence": "TGGGGCACGTGCCGTA", "relative binding free energy": -0.586}
{"sequence": "GGGGTCACGTGATGGG", "relative binding free energy": 1.42}
{"sequence": "AAGGGCACGTGCTGGG", "relative binding free energy": -1.05}
{"sequence": "ATGGTCACGTGATGCC", "relative binding free energy": 1.38}
{"sequence": "GGTAACACGTGGGTCT", "relative binding free energy": -0.669}
{"sequence": "ATCGGCACGTGGTGAG", "relative binding free energy": -0.628}
{"sequence": "GCGAACACGTGGTATG", "relative binding free energy": 0.418}
{"sequence": "TTGCTCACGTGATATG", "relative binding free energy": 0.92}
{"sequence": "TTTCACACGTGGTGGG", "relative binding free energy": 0.251}
{"sequence": "TAGTGCACGTGTTGAA", "relative binding free energy": 0.335}
{"sequence": "GCAGGCACGTGCGGTG", "relative binding free energy": -0.502}
{"sequence": "TATCGCACGTGGGCTT", "relative binding free energy": -0.669}
{"sequence": "TGATTCACGTGTATTC", "relative binding free energy": 0.837}
{"sequence": "TGTAACACGTGCAGGA", "relative binding free energy": 0.335}
{"sequence": "GTCTACACGTGTGGCG", "relative binding free energy": 1.67}
{"sequence": "ATTGTCACGTGCGCGG", "relative binding free energy": 0.377}
{"sequence": "CAAAGCACGTGGTGGT", "relative binding free energy": -0.502}
{"sequence": "TATAGCACGTGGTTCT", "relative binding free energy": -0.795}
{"sequence": "ACGAGCACGTGGTTTG", "relative binding free energy": -0.669}
{"sequence": "CGAAGCACGTGTGGTG", "relative binding free energy": 0.0837}
{"sequence": "TGATTCACGTGGCATA", "relative binding free energy": 1.3}
{"sequence": "AAGTCCACGTGTAGTG", "relative binding free energy": 0.335}
{"sequence": "CATGGCACGTGGTTAG", "relative binding free energy": -0.837}
{"sequence": "TTTTGCACGTGAGAAA", "relative binding free energy": 0.753}
{"sequence": "ATGGTCACGTGTGCGT", "relative binding free energy": 0.544}
{"sequence": "TTTAGCACGTGTGAGT", "relative binding free energy": 0.335}
{"sequence": "GGAATCACGTGGGGGC", "relative binding free energy": 0.502}
{"sequence": "GTGGCCACGTGGCTTG", "relative binding free energy": -0.753}
{"sequence": "CGTGACACGTGTGTTT", "relative binding free energy": -0.209}
{"sequence": "TGTTTCACGTGGGGGC", "relative binding free energy": 0.711}
{"sequence": "GGGGGCACGTGGGCAT", "relative binding free energy": -0.46}
{"sequence": "TCAAGCACGTGTGTGA", "relative binding free energy": -0.126}
{"sequence": "ATTTTCACGTGACATT", "relative binding free energy": 0.795}
{"sequence": "TATGCCACGTGGGGTG", "relative binding free energy": -1.05}
{"sequence": "TGATGCACGTGTGTAC", "relative binding free energy": 0.0837}
{"sequence": "CTTGTCACGTGTTGTT", "relative binding free energy": -0.0418}
{"sequence": "TATACCACGTGTGGTG", "relative binding free energy": -0.0418}
{"sequence": "TTTGCCACGTGGTGAA", "relative binding free energy": -0.92}
{"sequence": "GTAAACACGTGGGCAG", "relative binding free energy": -0.0837}
{"sequence": "GGGGTCACGTGTGTAG", "relative binding free energy": 0.837}
{"sequence": "GGGATCACGTGGTATG", "relative binding free energy": 0.628}
{"sequence": "AAATTCACGTGAGTTG", "relative binding free energy": 1.42}
{"sequence": "TTGGTCACGTGTAAGC", "relative binding free energy": 1.17}
{"sequence": "GTAATCACGTGGTTTT", "relative binding free energy": 0.795}
{"sequence": "TGACGCACGTGTTTTT", "relative binding free energy": -0.586}
{"sequence": "GAGGGCACGTGAGATA", "relative binding free energy": 0.502}
{"sequence": "GGTGTCACGTGAGGTC", "relative binding free energy": 0.628}
{"sequence": "ATATACACGTGTCAGT", "relative binding free energy": 0.167}
{"sequence": "CTACGCACGTGGGTGT", "relative binding free energy": -1.42}
{"sequence": "CTTTGCACGTGTGAAT", "relative binding free energy": 0.0418}
{"sequence": "TGTGTCACGTGCCTTG", "relative binding free energy": -0.0418}
{"sequence": "CTTTTCACGTGCTGTT", "relative binding free energy": 1.3}
{"sequence": "AGGGACACGTGTTGTG", "relative binding free energy": 0.126}
{"sequence": "ATGGACACGTGTCAGG", "relative binding free energy": -0.0418}
{"sequence": "ATATGCACGTGTTGTC", "relative binding free energy": -0.0418}
{"sequence": "TGTCTCACGTGGTTCG", "relative binding free energy": 0.711}
{"sequence": "ATATGCACGTGTCGTC", "relative binding free energy": 0.544}
{"sequence": "AGTAGCACGTGTTAGG", "relative binding free energy": -0.544}
{"sequence": "GGCTTCACGTGGTGTG", "relative binding free energy": 1.38}
{"sequence": "CCATGCACGTGCGGTG", "relative binding free energy": 0.628}
{"sequence": "TTGTTCACGTGCGAGG", "relative binding free energy": 1.09}
{"sequence": "GTAGACACGTGAAGGA", "relative binding free energy": 1.38}
{"sequence": "TCTATCACGTGGGGTA", "relative binding free energy": -0.251}
{"sequence": "GTGCACACGTGGTGCG", "relative binding free energy": -0.335}
{"sequence": "AGCTTCACGTGAAGTG", "relative binding free energy": 1.63}
{"sequence": "TACGGCACGTGGTGGT", "relative binding free energy": -0.46}
{"sequence": "GGTAGCACGTGTCGTA", "relative binding free energy": -0.628}
{"sequence": "TTCAACACGTGGTGAG", "relative binding free energy": 0.126}
{"sequence": "GGGAGCACGTGTGTTT", "relative binding free energy": -0.293}
{"sequence": "TGTTTCACGTGACGGA", "relative binding free energy": 1.46}
{"sequence": "ATATTCACGTGGTAGA", "relative binding free energy": 0.628}
{"sequence": "TTTTACACGTGTTACA", "relative binding free energy": -0.0418}
{"sequence": "TGTATCACGTGAAGAT", "relative binding free energy": 1.38}
{"sequence": "TGTTCCACGTGCGGTA", "relative binding free energy": 0.0418}
{"sequence": "TTTCTCACGTGGGGTA", "relative binding free energy": 0.0837}
{"sequence": "GCTTACACGTGTTGTG", "relative binding free energy": 0.544}
{"sequence": "TCAGGCACGTGAGGAG", "relative binding free energy": 0.377}
{"sequence": "ACGCGCACGTGGGGTT", "relative binding free energy": -1.21}
{"sequence": "TGTGTCACGTGCAATA", "relative binding free energy": 0.209}
{"sequence": "AGTTTCACGTGGTGCT", "relative binding free energy": 0.879}
{"sequence": "TGGTGCACGTGGCGCG", "relative binding free energy": -1.05}
{"sequence": "CTTGGCACGTGTTAAG", "relative binding free energy": -0.544}
{"sequence": "TCGTGCACGTGGCTTG", "relative binding free energy": -1.26}
{"sequence": "CGGTTCACGTGGTACG", "relative binding free energy": 1.09}
{"sequence": "GGATTCACGTGTTCTA", "relative binding free energy": 2.01}
{"sequence": "GTTCTCACGTGTGTGC", "relative binding free energy": 1.21}
